Among all 310,000 compounds or so, about 14,000 (4.5%) showed an effect of 50% or more. The effect is printed as a negative number. The list shows a part of the results.
Molecular target: human ether-à-go-go-related gene (hERG) potassium channel (human, UniProt Q12809)
Experiment: primary screen, population patch clamp on CHO cells stably expressing hERG
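Further: peak tail current of the secondary pulse compared with the same well before compound.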

human ether-à-go-go-related gene (hERG) potassium channel, sequence (Q12809 whole entry, looked up): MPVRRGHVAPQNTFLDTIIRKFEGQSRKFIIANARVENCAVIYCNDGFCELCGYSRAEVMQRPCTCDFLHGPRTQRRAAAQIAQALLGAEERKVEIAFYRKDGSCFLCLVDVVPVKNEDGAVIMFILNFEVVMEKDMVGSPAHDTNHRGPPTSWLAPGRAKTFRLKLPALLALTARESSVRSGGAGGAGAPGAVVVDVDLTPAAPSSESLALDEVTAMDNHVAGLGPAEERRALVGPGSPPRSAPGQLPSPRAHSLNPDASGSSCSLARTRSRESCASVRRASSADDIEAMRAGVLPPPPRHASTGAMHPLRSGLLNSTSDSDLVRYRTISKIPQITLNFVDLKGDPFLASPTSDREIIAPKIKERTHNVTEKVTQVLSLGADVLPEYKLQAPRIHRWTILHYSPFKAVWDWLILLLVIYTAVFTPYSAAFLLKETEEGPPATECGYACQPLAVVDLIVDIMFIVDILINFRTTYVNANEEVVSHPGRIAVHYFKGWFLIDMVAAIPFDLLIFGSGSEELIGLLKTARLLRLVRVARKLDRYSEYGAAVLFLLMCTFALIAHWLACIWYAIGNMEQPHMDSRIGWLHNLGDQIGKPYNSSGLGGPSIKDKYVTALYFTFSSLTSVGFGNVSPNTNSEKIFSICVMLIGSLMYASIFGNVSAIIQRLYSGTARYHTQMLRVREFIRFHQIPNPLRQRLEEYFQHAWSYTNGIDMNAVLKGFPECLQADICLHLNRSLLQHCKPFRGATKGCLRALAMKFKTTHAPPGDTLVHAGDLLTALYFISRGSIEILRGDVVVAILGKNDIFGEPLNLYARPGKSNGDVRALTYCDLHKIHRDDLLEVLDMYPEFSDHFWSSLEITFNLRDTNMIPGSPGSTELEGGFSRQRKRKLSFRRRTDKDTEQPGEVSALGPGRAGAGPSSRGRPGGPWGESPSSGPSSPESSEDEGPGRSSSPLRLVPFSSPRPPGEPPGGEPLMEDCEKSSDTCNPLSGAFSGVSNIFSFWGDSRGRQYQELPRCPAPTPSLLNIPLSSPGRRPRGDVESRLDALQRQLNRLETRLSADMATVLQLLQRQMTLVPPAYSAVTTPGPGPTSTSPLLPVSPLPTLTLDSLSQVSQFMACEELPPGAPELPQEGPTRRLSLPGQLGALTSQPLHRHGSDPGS

| SMILES | hERG current change (%, negative = inhibition) at 10uM [%] |
| --- | --- |
| COc1cccc(CNC(=O)c2nnn(CC(=O)Nc3cc(C)ccc3C)c2N)c1 | 24.8 |
| CCOC(=O)N1CCN(c2cc(=O)n(-c3ccc(C)cc3)c(=O)[nH]2)CC1 | -25.8 |
| CC(OC(=O)CCN1C(=O)C2CC=CCC2C1=O)C(=O)c1ccc(F)cc1 (centres unmarked) | -16.4 |
| COc1ccc(CCNC(=S)NC(=O)/C=C/c2ccc(C)cc2)cc1OC | 0.564 |
| Cc1ccc(N(C)S(=O)(=O)c2cccc(C(=O)Nc3ccc(C)cn3)c2)cc1 | -14.3 |
| O=C(Nc1cccc(Cl)c1)N1CCN(C/C=C/c2ccccc2)CC1 | -68.5 |
| CCOC(=O)c1c(C)n(CCN2CCN(C)CC2)c2ccc(OC)cc12.Cl | -20.2 |
| O=c1c(-c2ccccc2)c(O)c2cccc3c2n1CCC3 | -0.968 |
| CS(=O)(=O)N(CC(=O)N1CCOCC1)c1cccc(Cl)c1Cl | 6.91 |
| CC(C)OC(=O)c1c(N)n(CC2CCCO2)c2nc3ccccc3nc12 (centres unmarked) | -29.3 |
| Cc1ccc(OCCC(=O)OCC(=O)Nc2ccc3c(c2)OCO3)cc1 | 13.5 |
| Cc1ccc(C(=O)Nc2scc(-c3ccccc3)c2C(=O)O)cc1 | 8.07 |
| O=C(Nc1cc(=O)c2ccccc2o1)N1CCOCC1 | -2.22 |
| Fc1cc(F)cc(NC(=S)NCCCN2CCOCC2)c1 | -13.2 |
| Cc1ccsc1C(=O)Nc1ccc2c(c1)OCCO2 | 14.7 |
| O=C(COC(=O)C1CCCCC1)Nc1ccc([N+](=O)[O-])cc1 | 0.687 |
| CN(c1ccccc1C(=O)Nc1cccc(Br)c1)S(=O)(=O)c1ccccc1 | -5.01 |
| CCN(C(=O)CSc1nnc(-c2cccs2)o1)C1CCS(=O)(=O)C1 (centres unmarked) | 7.74 |
| O=C(CN1CCC(NC(=O)Nc2ccc(F)cc2)CC1)Nc1ccccc1[N+](=O)[O-] | -51 |
| Cc1cccc2cc(C(c3nnnn3CC3CCCO3)N3CCCc4ccccc43)c(=O)[nH]c12 (centres unmarked) | -8.01 |
| C#CCOCCOCCOCCNc1nc(N2CCN(C(=O)[C@H](CCC(=O)O)n3cc(C(N)CC(C)C)nn3)CC2)nc(N2CCN(C(=O)[C@H](Cc3cc4ccccc4[nH]3)n3cc(C(N)[C@H](C)CC)nn3)CC2)n1.Cl (some centres unmarked) | 18.9 |
| Cl.O=C1CSC2(CN3CCC2CC3)N1 (centres unmarked) | 11.8 |

| SMILES | hERG current change (%, negative = inhibition) at 10uM [%] |
| --- | --- |
| C=CCNC1=C(Cl)C(=O)N(c2cccc(Cl)c2Cl)C1=O | -13.3 |
| CN1C(=O)[C@H]2[C@@H](/C=C/c3ccccc3)N3C(=O)CN(CCO)C(=O)[C@@]3(C)[C@H]2C1=O | 2.2 |
| C/C(=N/NC(=O)c1ccncc1)c1ccc(NC(=O)c2ccccc2)cc1 | 7.92 |
| CCCCCC(=O)NNC(=O)Cc1ccc([N+](=O)[O-])cc1 | -1.38 |
| CCN1C(=O)CC(N2CCN(c3cccc(OC)c3)CC2)C1=O (centres unmarked) | 14.1 |
| CCC1(C)Cc2ccccc2-c2nc(NCCCO)[nH]c(=O)c21 (centres unmarked) | -10.1 |
| CCCN(Cc1ccc(N(C)C)cc1)CC1CC1 | -16.2 |
| CN1CCN(C(=O)C2CCCN(S(=O)(=O)c3ccc(Br)cc3)C2)CC1 (centres unmarked) | -5.87 |
| Cc1nc2ccccc2c2oc(C(=O)N3CCN(C(=O)c4ccco4)CC3)cc12 | -46.7 |
| CCc1ccc(C(=O)CN(C#N)c2nc(C)cc(C)n2)cc1 | -75.6 |
| CCCCc1nnc(NC(=O)CSCc2cc(=O)n3c(C)csc3n2)s1 | 4.61 |
| CCC(C(=O)NC1CCCC1)N(Cc1ccco1)C(=O)CNS(=O)(=O)c1ccccc1 (centres unmarked) | 12.4 |
| CC(C)(C)c1ccc(NC(=O)COC(=O)CCN2C(=O)c3cccc([N+](=O)[O-])c3C2=O)cc1 | -4.35 |
| CCO[C@@H]1OC(C(=O)N2CCCCCCC2)=C[C@H](c2csc3ccccc23)[C@H]1CCCO | -23.6 |
| CCC(=O)Nc1cccc(C(=O)/C=C/c2cc(Br)ccc2OC)c1 | -17.2 |
| COc1ccc2[nH]cc(C=O)c2c1 | 17.7 |
| COc1cccc(C(=O)Nc2cccc(SC)c2)c1 | -21.5 |
| S=C(Nc1ccc2nsnc2c1)NC1CCCCC1 | -6.44 |
| CN(C)C(=O)Oc1cccc(NC(=O)N2CCOCC2)c1 | 5.15 |
| O=C(COC(=O)C1CCN(S(=O)(=O)c2ccc3c(c2)OCCO3)CC1)Nc1ccc(C(F)(F)F)cc1 | -0.0388 |
| CCN(CC)c1ccc(CN2CCC(C(=O)NCc3ccc(C)cc3)CC2)cc1.O=C(O)C(=O)O | -65.3 |
| CCCCCOc1ccc(Cl)cc1CN1CCOCC1.Cl | -9.35 |

| SMILES | hERG current change (%, negative = inhibition) at 10uM [%] |
| --- | --- |
| COC(=O)CCCC1=CC2=C(c3ccccc3)C(=O)C(C)(OC(=O)C3CCCC3)C(=O)C2=CN1C1CCCC1 (centres unmarked) | -32.1 |
| Cc1ccccc1CSc1ncnc2ccccc12 | -4.5 |
| CCc1nn(CC(=O)NC(C)CCc2ccccc2)c(=O)c2cc3cc(F)ccc3n12 (centres unmarked) | 13 |
| Cc1nc(CC(=O)N/N=C/c2ccc(OCC(=O)O)cc2)cs1 | 9.98 |
| CNC(=S)N(C)[C@H]1c2c(ccc3ccccc23)OC[C@H]1CO | 9.85 |
| COc1cccc(C(=O)NC(C)c2ccc(Br)cc2)c1 (centres unmarked) | -11.9 |
| Cc1cc(Nc2ccc(F)cc2C)n2ncnc2n1 | -4.78 |
| COc1ccc(S(=O)(=O)N2CCN(c3ccc4nnc(-c5ccc(F)cc5)n4n3)CC2)cc1 | -19.4 |
| O=C(CCCNS(=O)(=O)c1cccs1)N1CCN(c2ccc(F)cc2)CC1 | -43.2 |
| CCOC(=O)CCc1c(C)c(C#N)c2nc3ccccc3n2c1-n1ccnc1 | -31.1 |
| CC1CCC(NC(=O)c2ccc(COc3ccccc3)o2)CC1 (centres unmarked) | 7.02 |
| Cc1nc2cc(C(=O)OCC(=O)Nc3cccc(Cl)c3)ccc2n1-c1ccccc1 | -13.6 |
| COc1cc(S(=O)(=O)NCc2ccccc2Cl)ccc1-n1cnnn1 | -18.2 |
| O=C(CSc1nnc(-c2cccnc2)n1-c1ccccc1)Nc1ccc2c(c1)OCO2 | -6.74 |
| O=C(CCNS(=O)(=O)c1cccs1)NC1CCN(Cc2ccccc2)CC1 | 9.19 |
| Cc1ccc(S(=O)(=O)N2CCC(=O)N(C(COCc3ccccc3)C(C)C)CC2)cc1 (centres unmarked) | -23.2 |
| O=c1[nH]c(/C=C\c2cccc(Cl)c2)nc(O)c1[N+](=O)[O-] | 16.4 |
| CC(=O)C(Cc1ccccc1)NC(=O)CN1CCN(Cc2ccccc2)CC1 (centres unmarked) | -5.57 |
| COc1ccc(C(=S)N2CCN(C)CC2)cc1 | -22.8 |
| COc1ccc(NC(=O)CSc2ncnc3c2nnn3-c2ccc(F)cc2)c(OC)c1 | 4.57 |
| CCn1ccc2cc(OC)ccc2c1=S | 10.3 |
| CC1CC(C)CN(CCCNC(=O)c2ccc(CS(=O)(=O)Cc3ccccc3F)o2)C1 (centres unmarked) | -42.7 |

| SMILES | hERG current change (%, negative = inhibition) at 10uM [%] |
| --- | --- |
| Cc1ccc(NC(=O)C(OC(=O)c2ccc(C=O)cc2)c2ccccc2)cc1Cl (centres unmarked) | 6.16 |
| Cc1cccc(N)c1-c1c(C)cccc1N | 11.3 |
| O=C(N(Cc1ccccc1)c1ccccn1)C12CC3CC(CC(C3)C1)C2 | -17.7 |
| CC(NC(=O)c1cc2cc([N+](=O)[O-])ccc2oc1=O)C1CCCO1 (centres unmarked) | 22.6 |
| Nc1nonc1-n1nnc(C(=O)N/N=C\c2ccncc2)c1CN1CCCCC1 | -15.8 |
| Cc1nc2ncnn2c(C)c1CCC(=O)NCCC1=CCCCC1 | -23.7 |
| Cc1ccccc1NC(=O)Cc1nc(COC(=O)c2cccc(C)c2O)cs1 | -8.57 |
| CNC(=O)[C@@H]1CCC(=O)N1 | 10.6 |
| CCc1cc2c(=O)c(-c3nc4ccccc4n3C)c(C)oc2c(CN2CCN(C)CC2)c1O | 14.3 |
| CCOC(=O)c1[nH]c2ccc(Br)cc2c1NC(=O)CNC | -7.67 |
| CC(C)C(=O)Nc1cc2c(cc1C(=O)c1ccccc1)OCCO2 | 0.342 |
| COc1ccc(C)cc1NC(=O)c1sc2nc(C)nc(N3CCOCC3)c2c1C | -17.9 |
| Cc1noc2ncnc(Oc3ccc4ccccc4c3)c12 | 2.47 |
| CCCCCN(C(=O)CCC(=O)OC(C)C(=O)NC1CCCCC1)c1c(N)n(CCCC)c(=O)[nH]c1=O (centres unmarked) | 16.1 |
| O=C1COc2ccc(-c3csc(NCC4CCCO4)n3)cc2N1 (centres unmarked) | 3.87 |
| O=C(O)[C@H](CSCc1ccccc1)NS(=O)(=O)c1ccc(F)cc1 | -0.928 |
| COCc1cc(C)n(CC(=O)NCC2CCCO2)c(=O)c1C#N (centres unmarked) | 12 |
| Cl.O=C(CN1CCCCCC1)Nc1cccc2c1OCO2 | -8.62 |
| Cc1nc(-c2ccc(S(=O)(=O)Nc3ccc(S(N)(=O)=O)cc3)cc2)co1 | 24.5 |
| COc1cc([N+](=O)[O-])c(N2CCOCC2)c([N+](=O)[O-])c1OC | -4.15 |

Reference: publication PMC4336329 (PLoS ONE, 2015)
